{"source": "the BET-seq Pho4 binding data (Le et al. 2018)", "note": "The list shows a part of the results. Values were computed here from the reads of four pooled replicates and scatter widely."}
{"molecular_target": "T1, Pho4 (S. cerevisiae) (UniProt P07270)", "T1 sequence": "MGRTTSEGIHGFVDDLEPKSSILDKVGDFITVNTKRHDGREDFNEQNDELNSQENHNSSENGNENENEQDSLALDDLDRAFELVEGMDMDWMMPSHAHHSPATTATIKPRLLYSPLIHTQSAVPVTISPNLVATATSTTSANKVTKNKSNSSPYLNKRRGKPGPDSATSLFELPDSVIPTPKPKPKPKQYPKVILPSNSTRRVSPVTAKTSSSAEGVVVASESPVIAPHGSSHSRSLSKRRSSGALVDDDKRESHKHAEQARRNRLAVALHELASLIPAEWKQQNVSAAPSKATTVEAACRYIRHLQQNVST", "assay": "relative binding free energy (BET-seq); higher = weaker binding", "settings": "reference: library average", "units": {"relative binding free energy": "kcal/mol"}}
{"sequence": "GCGGTCACGTGTGGAC", "relative binding free energy": 0.19}
{"sequence": "GTGATCACGTGTTAAG", "relative binding free energy": 0.06}
{"sequence": "GTGTGCACGTGTATTA", "relative binding free energy": -0.01}
{"sequence": "GTCTGCACGTGGAGGT", "relative binding free energy": -0.02}
{"sequence": "ATATCCACGTGGAGGG", "relative binding free energy": -0.04}
{"sequence": "AATGTCACGTGATTCA", "relative binding free energy": 0.25}
{"sequence": "AGCATCACGTGTATGT", "relative binding free energy": 0.21}
{"sequence": "ATAGGCACGTGCGGCG", "relative binding free energy": -0.27}
{"sequence": "TGTCTCACGTGGGCGG", "relative binding free energy": 0.15}
{"sequence": "GTTAGCACGTGATTCT", "relative binding free energy": 0.13}
{"sequence": "CGAGACACGTGGGTGT", "relative binding free energy": -0.25}
{"sequence": "GATATCACGTGAGGGG", "relative binding free energy": 0.47}
{"sequence": "GGGCTCACGTGGGGGT", "relative binding free energy": 0.1}
{"sequence": "GTAAGCACGTGTCGAG", "relative binding free energy": 0.01}
{"sequence": "GTTATCACGTGGAGAG", "relative binding free energy": 0.18}
{"sequence": "TTATACACGTGGGTGG", "relative binding free energy": -0.08}
{"sequence": "GTCCGCACGTGGGTGA", "relative binding free energy": -0.16}
{"sequence": "GGGTGCACGTGCAGTA", "relative binding free energy": 0.02}
{"sequence": "ATGCTCACGTGAGCGT", "relative binding free energy": 0.28}
{"sequence": "ATTGTCACGTGTAGAT", "relative binding free energy": 0.17}
{"sequence": "GGTACCACGTGAGGGG", "relative binding free energy": 0}
{"sequence": "TGGGCCACGTGATGCG", "relative binding free energy": 0.04}
{"sequence": "TCTAGCACGTGGTATT", "relative binding free energy": -0.18}
{"sequence": "TCTTTCACGTGAGGTC", "relative binding free energy": 0.39}
{"sequence": "GTCTACACGTGGTGTT", "relative binding free energy": 0.02}
{"sequence": "GTTAGCACGTGCGGTA", "relative binding free energy": 0.01}
{"sequence": "AAGTGCACGTGGAGGC", "relative binding free energy": -0.07}
{"sequence": "GTTTTCACGTGTAAAA", "relative binding free energy": 0.21}
{"sequence": "TAGGACACGTGAGGTT", "relative binding free energy": 0.16}
{"sequence": "GTCATCACGTGGTGTA", "relative binding free energy": 0.05}
{"sequence": "TGGATCACGTGGGTTG", "relative binding free energy": 0.06}
{"sequence": "GAGTTCACGTGGCGTG", "relative binding free energy": 0.25}
{"sequence": "GGAAGCACGTGGGCCG", "relative binding free energy": -0.08}
{"sequence": "TATGGCACGTGCTTGA", "relative binding free energy": -0.26}
{"sequence": "GGGGTCACGTGCGGCG", "relative binding free energy": 0.04}
{"sequence": "TTATGCACGTGTCGCG", "relative binding free energy": -0.04}
{"sequence": "TAGTTCACGTGAATTC", "relative binding free energy": 0.46}
{"sequence": "TCGTGCACGTGTGAGT", "relative binding free energy": 0.1}
{"sequence": "GGCGGCACGTGGGTGA", "relative binding free energy": -0.27}
{"sequence": "CGTTTCACGTGCTGGG", "relative binding free energy": 0.25}
{"sequence": "TTCGCCACGTGTGGGT", "relative binding free energy": -0.09}
{"sequence": "TTGTTCACGTGTGGAG", "relative binding free energy": 0.27}
{"sequence": "TAGGGCACGTGGGAAT", "relative binding free energy": 0}
{"sequence": "AGGTTCACGTGAGGGC", "relative binding free energy": 0.29}
{"sequence": "GTATACACGTGGGAGT", "relative binding free energy": -0.08}
{"sequence": "TGCCGCACGTGGTGTT", "relative binding free energy": -0.09}
{"sequence": "TGCGTCACGTGAGCAG", "relative binding free energy": 0.34}
{"sequence": "TATGTCACGTGTTCGG", "relative binding free energy": 0.18}
{"sequence": "TCTGTCACGTGTAGTA", "relative binding free energy": 0.12}
{"sequence": "ATGGCCACGTGCGTGG", "relative binding free energy": -0.25}
{"sequence": "GGGTACACGTGAGTTA", "relative binding free energy": 0.32}
{"sequence": "TGTGCCACGTGTGTCT", "relative binding free energy": -0.03}
{"sequence": "CGTTGCACGTGGTCTG", "relative binding free energy": -0.03}
{"sequence": "TTCTACACGTGTGGAT", "relative binding free energy": 0.14}
{"sequence": "AGTGACACGTGTGTGG", "relative binding free energy": 0.1}
{"sequence": "AGGTACACGTGGTAGC", "relative binding free energy": -0.04}
{"sequence": "CAGGACACGTGGCGGT", "relative binding free energy": -0.12}
{"sequence": "GAGAGCACGTGTGTAT", "relative binding free energy": -0.03}
{"sequence": "GAAGTCACGTGCGGCG", "relative binding free energy": 0.19}
{"sequence": "TTGTTCACGTGGGCCT", "relative binding free energy": 0.25}
{"sequence": "ACGGTCACGTGAGGGG", "relative binding free energy": 0.16}
{"sequence": "GGAGGCACGTGGCGTC", "relative binding free energy": -0.23}
{"sequence": "GGTGCCACGTGTGTGA", "relative binding free energy": -0.09}
{"sequence": "ACGTTCACGTGGTATT", "relative binding free energy": 0.14}
{"sequence": "TCTCGCACGTGGGGTG", "relative binding free energy": -0.29}
{"sequence": "AGGGACACGTGGCTGG", "relative binding free energy": -0.18}
{"sequence": "CTTTGCACGTGGTATG", "relative binding free energy": -0.1}
{"sequence": "GAGGTCACGTGGGATA", "relative binding free energy": 0.17}
{"sequence": "GGTTTCACGTGCTTGG", "relative binding free energy": 0.31}
{"sequence": "AGGTTCACGTGTTTGC", "relative binding free energy": 0.2}
{"sequence": "GGACGCACGTGTAGTG", "relative binding free energy": -0.18}
{"sequence": "AGTTGCACGTGTAAAT", "relative binding free energy": 0.15}
{"sequence": "GAGTTCACGTGGGGGC", "relative binding free energy": 0.35}
{"sequence": "GGCGGCACGTGAGTAG", "relative binding free energy": 0.13}
{"sequence": "CAAGGCACGTGGAGTT", "relative binding free energy": -0.16}
{"sequence": "CGTGGCACGTGGCATT", "relative binding free energy": -0.14}
{"sequence": "GTAGGCACGTGAGGAC", "relative binding free energy": 0.25}
{"sequence": "CGGGGCACGTGAGGAT", "relative binding free energy": 0.1}
{"sequence": "GGCTGCACGTGGGCGG", "relative binding free energy": -0.21}
{"sequence": "GGGGGCACGTGAAGTA", "relative binding free energy": 0.16}
{"sequence": "TCCGGCACGTGGGGCG", "relative binding free energy": -0.27}
{"sequence": "GTGGGCACGTGTTATC", "relative binding free energy": 0.07}
{"sequence": "CGGAGCACGTGCAGTG", "relative binding free energy": -0.14}
{"sequence": "TTATGCACGTGTGAGA", "relative binding free energy": 0.1}
{"sequence": "GCTGGCACGTGGGTAA", "relative binding free energy": -0.24}
{"sequence": "GTAGGCACGTGGTTTG", "relative binding free energy": -0.04}
{"sequence": "GGTTACACGTGGTCGG", "relative binding free energy": 0.2}
{"sequence": "TTTGGCACGTGATATT", "relative binding free energy": -0.06}
{"sequence": "GAGTGCACGTGCTGTG", "relative binding free energy": -0.01}
{"sequence": "GGCAACACGTGAGGTG", "relative binding free energy": 0.31}
{"sequence": "AATTTCACGTGGCAGT", "relative binding free energy": 0.18}
{"sequence": "AATATCACGTGGGCTT", "relative binding free energy": 0.24}
{"sequence": "TTCAACACGTGTGTGG", "relative binding free energy": 0.1}
{"sequence": "GGGTTCACGTGGACGA", "relative binding free energy": 0.28}
{"sequence": "AACATCACGTGGGGTG", "relative binding free energy": 0}
{"sequence": "TTATTCACGTGGTCAG", "relative binding free energy": 0.23}
{"sequence": "GCTGTCACGTGTGTGG", "relative binding free energy": 0.12}
{"sequence": "TGTAGCACGTGGGTCG", "relative binding free energy": -0.16}
{"sequence": "TTTGTCACGTGAGCTG", "relative binding free energy": 0.29}
{"sequence": "TGTCGCACGTGAGTAT", "relative binding free energy": 0.17}
{"sequence": "TAGGGCACGTGATATT", "relative binding free energy": 0}
{"sequence": "GTAAGCACGTGTGGTA", "relative binding free energy": -0.01}
{"sequence": "GTCTCCACGTGTTTGG", "relative binding free energy": 0.13}
{"sequence": "TGGGTCACGTGAGCAT", "relative binding free energy": 0.23}
{"sequence": "GTCGGCACGTGTATGT", "relative binding free energy": -0.11}
{"sequence": "GGTCACACGTGTAGGT", "relative binding free energy": 0.16}
{"sequence": "TCGTTCACGTGGGGTG", "relative binding free energy": 0.17}
{"sequence": "AGATTCACGTGAGCGG", "relative binding free energy": 0.36}
{"sequence": "TCGGACACGTGGGCGG", "relative binding free energy": -0.03}
{"sequence": "AAAAGCACGTGTAGGT", "relative binding free energy": -0.18}
{"sequence": "AGTGTCACGTGAGATT", "relative binding free energy": 0.2}
{"sequence": "TTAGACACGTGCCGGG", "relative binding free energy": -0.07}
{"sequence": "TGGTACACGTGAGTTC", "relative binding free energy": 0.27}
{"sequence": "ATTGCCACGTGTGGGG", "relative binding free energy": -0.16}
{"sequence": "TGGTGCACGTGCGAAT", "relative binding free energy": -0.05}
